Data reported in the supplement of paper PMC3334620.
In all, about 33,000 sequences were measured (“E-score (-0.5 to 0.5)”: median about -0.017, highest 2% from about 0.3 on). The list shows a part of the results.

Molecular target: T1, Sut1 (UniProt P53032)
T1 sequence: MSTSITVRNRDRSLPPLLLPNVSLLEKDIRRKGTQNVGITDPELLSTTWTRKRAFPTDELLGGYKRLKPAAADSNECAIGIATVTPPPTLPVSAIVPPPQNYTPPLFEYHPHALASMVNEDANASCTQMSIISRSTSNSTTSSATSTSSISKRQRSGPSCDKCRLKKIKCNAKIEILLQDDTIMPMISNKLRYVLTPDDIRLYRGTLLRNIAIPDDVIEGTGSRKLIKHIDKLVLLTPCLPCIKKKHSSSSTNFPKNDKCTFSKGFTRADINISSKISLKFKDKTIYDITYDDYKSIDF
Test: PBM E-score (8-mer binding enrichment) (E-score (-0.5 to 0.5)); higher = stronger / more preferred TF binding; most listed sequences are background and not binding sites
Conditions: protein concentration: 200 nM; construct: GST-full length
Protocol: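 Universal 'all 10-mer' protein binding microarrays (Agilent AMADID 015681) probed with GST-tagged S. cerevisiae TFs (full-length or DBD) made by in vitro transcription/translation (PURExpress), about 100-200 nM. Bound TF was detected with fluorescent anti-GST. Each ungapped 8-mer (which stands for itself and its reverse complement) is scored by the PBM enrichment score (E-score), a modified Wilcoxon-Mann-Whitney statistic from -0.5 to +0.5, computed with the Universal PBM Analysis Suite. Scale: above 0.35 generally sequence-specific binding.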

Row | Sequence | PBM E-score
1 | GGGAATTA | 0.143
2 | GACGCCTC | -0.125
3 | CATTATAG | 0.0697
4 | GCAGTTAC | 0.0174
5 | ATCTCTCG | -0.105
6 | GTTACAGA | -0.0314
7 | ATACGAAT | 0.0809
8 | CCCACGCC | -0.284
9 | TCGATTCA | 0.096
10 | CCTCATCA | -0.0454
11 | ATGACTTC | -0.029
12 | GACGGCAA | -0.0649
13 | ACTTTCCT | -0.0678
14 | CGCAAGCC | -0.0959
15 | CATTTGGC | 0.0871
16 | ACGCCTGA | 0.0136
17 | GTGACTTA | 0.103
18 | AAGGTAAG | 0.00196
19 | TATGCGCA | -0.318
20 | CAATCGCG | -0.0635
21 | ACGCGACC | -0.227
22 | GGCAGGGA | -0.294
23 | TCATGGCA | -0.101
24 | CGTCGAGC | -0.142
25 | TAACCCAA | 0.141

Row | Sequence | PBM E-score
26 | AGTAAGGA | -0.137
27 | CCCAATTC | 0.162
28 | AGTAGTAC | 0.162
29 | CAATAAGC | -0.0887
30 | GGCATACC | -0.204
31 | ATATGAGC | 0.00122
32 | CAAAGCTG | 0.0334
33 | AACCGAGT | -0.0962
34 | AAGGTTAT | 0.0922
35 | AACTGTTA | 0.217
36 | CCTGCGTA | -0.19
37 | GGCAAAGA | 0.095
38 | AATGGTTC | 0.0835
39 | GAGTGGCC | -0.037
40 | ACACGTCG | -0.206
41 | AGTGCGTG | -0.00058
42 | GCATCGCC | 0.0168
43 | ATGAGACA | -0.0116
44 | GACCGAAC | 0.0271
45 | ACGGGCGG | -0.239
46 | ATTTCCTA | 0.135
47 | TCAGCAAA | 0.0208
48 | ATCCGTCA | 0.0376
49 | AAGTTTCT | 0.17
50 | ACGCCTAT | -0.188

Row | Sequence | PBM E-score
51 | TCGACTCA | 0.036
52 | CAAGCCGG | 0.152
53 | AAGCTTTC | 0.146
54 | GAGAGCGC | -0.14
55 | CGCGACCG | -0.205
56 | GCAGTCTA | -0.135
57 | AGTTCGGG | 0.0543
58 | GCATCGTA | -0.0143
59 | CGCAGTAA | 0.11
60 | GAAATTAC | 0.292
61 | GCAGCTAA | -0.197
62 | ATCTGCAG | 0.0906
63 | CTAGCAGC | -0.103
64 | CACTGTTC | -0.123
65 | TAAGTTCA | 0.0818
66 | GCGAACGC | -0.266
67 | CAGCTTGC | -0.163
68 | ACCCCTTG | -0.321
69 | ACTAGTTC | 0.122
70 | CCAGATTA | 0.0432
71 | ATGTTACA | 0.0659
72 | ATATACAG | 0.148
73 | GGTTAGTA | -0.0393
74 | AAAAGTAC | 0.167
75 | ACACGGAA | 0.18

Row | Sequence | PBM E-score
76 | ATAGATGA | 0.0702
77 | ATCCTTAC | 0.0692
78 | CAGAGCCA | -0.285
79 | AGGCTTTA | 0.0818
80 | CGGGCAAA | 0.0553
81 | ACCCGTGG | -0.405
82 | ATCGATAA | 0.0315
83 | AACCTACG | 0.0309
84 | CAATATGG | -0.0809
85 | CTCGACAA | -0.0222
86 | GTTTTGGA | 0.0457
87 | TATGGAGA | 0.144
88 | CCTGAATC | -0.0375
89 | AGGTACCT | -0.164
90 | GAATGATC | -0.0913
91 | CGTTCGTA | 0.15
92 | ACGTACCG | -0.157
93 | CGTAAGAG | -0.013
94 | ACCATACA | -0.0658
95 | GCTAAGAA | 0.014
96 | GTTGTTAA | 0.197
97 | GCTATAAA | 0.194
98 | CTTAGCAC | 0.0684
99 | GACGAAAA | 0.247
100 | CTTAGCCC | -0.129

Row | Sequence | PBM E-score
101 | AGGATCTG | -0.275
102 | AGCCGGCT | 0.0069
103 | ACTGCTAC | -0.0513
104 | AGTTAGTA | 0.0892
105 | AGCATCGG | 0.0931
106 | CGTTAGCA | 0.0473
107 | GGTTTCCA | -0.112
108 | AATCACCA | 0.0859
109 | AACTAAAT | 0.101
110 | ACAGGCCC | -0.315
111 | CCACTTTC | 0.108
112 | CAGGGACG | -0.165
113 | CGAATGGC | -0.11
114 | TCGGCCAA | -0.199
115 | TCGTGCCA | -0.222
116 | TAGCTCCA | -0.0882
117 | CGAACCGA | 0.0613
118 | AGTGGCGG | 0.0532
119 | GGCCACGA | -0.0754
120 | CCCACTGC | -0.36
121 | CAGCCCAA | -0.153
122 | TACCAAAA | -0.0637
123 | CATTCTTC | 0.131
124 | GTAACGAC | 0.0279
125 | ATGGGCTG | -0.258

Row | Sequence | PBM E-score
126 | AGATACGA | 0.252
127 | CACTAGCA | -0.245
128 | AGAAAAAC | 0.251
129 | TCGTCACA | -0.132
130 | CTCTTAGA | 0.112
131 | ATTACGAG | 0.104
132 | CCGGTCCC | 0.0189
133 | AGCGTGGG | -0.232
134 | AGATTATG | 0.192
135 | AATTAGCC | 0.0258
136 | CACATGCG | -0.177
137 | CCATCCCC | -0.152
138 | ACATCATA | 0.249
139 | CTTTACTA | 0.21
140 | CCGTGAAA | 0.232
141 | CGGGATCC | 0.00502
142 | ACGGTTTG | -0.00598
143 | GCCCCTGA | -0.359
144 | AACTTGCA | -0.19
145 | CAATGGAA | 0.066
146 | ATAAATAA | 0.321
147 | GTGAGCCA | -0.139
148 | ATAAGTAA | 0.25
149 | CCTCTTCA | -0.184
150 | GTACCTCA | -0.0469

Row | Sequence | PBM E-score
151 | CTAGGCAC | -0.263
152 | CTCGCGAA | -0.0779
153 | AAAGGAAG | 0.146
154 | GCCTGATA | -0.217
155 | AGCATCAT | 0.0711
156 | ACATACCG | -0.0376
157 | AACTCGCT | 0.0435
158 | CAAATTTC | 0.163
159 | TACGATAA | 0.23
160 | AGCTCGCA | -0.0891
161 | GACCACTC | 0.00269
162 | GAGAGCCC | -0.378
163 | ACAGTCTG | -0.187
164 | GAGCCAGA | -0.115
165 | CGGATAGC | 0.0587
166 | TCGCCCGA | -0.135
167 | GATTTGAA | 0.142
168 | CCGTCAAA | -0.0438
169 | ACATCGAT | 0.00932
170 | ATTAGAGC | 0.123
171 | TACTCAGA | 0.0597
172 | ACTAAGGA | -0.00143
